Test results reported in the supplement of paper PMC4723716.
± gives the uncertainty stated by the source. The full ranking holds about 9,900 compounds; the median of “viability index relative to DMSO control” is about 1, and the lowest 2% start at about 0.85. Some of the results follow.

What follows are molecules tested on Plasmodium falciparum NF54 stage V gametocytes (assay: viability index relative to DMSO control (fraction); higher = less gametocyte killing). Settings: 2.5 µM, library set: Broad Institute DOS, incubation time: 72 h.
Outline: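 P. falciparum NF54 stage V gametocytes (serum-free medium, 0.75% gametocytemia, 1.25% hematocrit) were exposed to compound at 2.5 µM for 72 hr at 37°C under low oxygen, then stained with MitoTracker Red CMXRos and saponin for one to two hours. Red particles of 20–70 µm2 in one field per well were counted, and the viability index is that count scaled to the plate mean of solvent-only wells.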
CO[C@@H]1CN(C)C(=O)c2cc(NS(=O)(=O)c3cn(C)cn3)ccc2OC[C@@H](C)N(Cc2cccc(C(F)(F)F)c2)C[C@H]1C showed a viability index of 1.14 ± 0.047.
In the case of COc1ccc(S(=O)(=O)N(C)C[C@@H]2Oc3ncccc3C(=O)N([C@H](C)CO)C[C@@H]2C)cc1, the viability index is reported as 0.964 ± 0.055.
COc1ccc(NC(=O)N(C)C[C@@H]2Oc3ccc(NC(=O)CCN4CCOCC4)cc3C(=O)N([C@@H](C)CO)C[C@@H]2C)cc1 was tested, and the viability index was 0.969 ± 0.17.
O=C(C[C@@H]1CC[C@H]2[C@@H](COC[C@@H](O)CN2C(=O)c2ccccc2F)O1)NCc1ccc(Cl)c(Cl)c1 was tested, and the viability index was 1.09 ± 0.036.
Work on C[C@@H]1CN([C@@H](C)CO)C(=O)c2cccc(NC(=O)NC3CCCCC3)c2O[C@@H]1CN(C)Cc1ccc(C(F)(F)F)cc1 yielded a viability index of 0.813 ± 0.08.
With C[C@@H]1CN([C@H](C)CO)C(=O)c2ccccc2-c2ccccc2CO[C@H]1CN(C)C(=O)CCC(F)(F)F the viability index was 0.966 ± 0.14.
For Cc1noc(C)c1S(=O)(=O)N(C)C[C@@H]1OCCCC[C@@H](C)Oc2ccc(N(C)C)cc2C(=O)N([C@@H](C)CO)C[C@@H]1C, the viability index was 1.08 ± 0.068.
In the case of CCCC(=O)N1CC[C@@]2(CC1)CN[C@H](CO)c1[nH]c3cc(OC)ccc3c21, the viability index is reported as 0.974 ± 0.08.
With COc1ccc2c3c([nH]c2c1)[C@@H](CO)N(C[C@]31CCN(C)CC1)S(=O)(=O)c1ccccc1 the viability index was 1.04 ± 0.032.
COc1ccccc1S(=O)(=O)N(C)C[C@H]1OCc2ccccc2-c2ccccc2C(=O)N([C@@H](C)CO)C[C@H]1C showed a viability index of 1.07 ± 0.032.
Work on O=C(CN1CCOCC1)N1CC(=O)N2[C@H](CO)[C@@H](c3ccc(-c4cccc(F)c4)cc3)[C@H]2C1 yielded a viability index of 1.03 ± 0.024.
Molecule Cc1ccc(-c2ccccc2[C@H]2[C@@H](C#N)N(c3ncc(-c4ccccc4)s3)[C@@H]2CO)cc1 has a viability index of 1.1 ± 0.075.
Molecule O=C(CN1CCOCC1)N1CC[C@@H]2[C@H](CO)Nc3ccc(-c4ccccc4F)cc3[C@@H]21 has a viability index of 1.04 ± 0.051.
Molecule COc1ccc(NC(=O)N[C@H]2CC[C@H](CCNC(=O)CN3CCOCC3)O[C@H]2CO)cc1 has a viability index of 1.02 ± 0.053.
COc1ccc2c3c([nH]c2c1)[C@@H](CO)N(C)C[C@]31CCN(CC1)C(=O)c1ccccc1F gave a viability index of 0.983 ± 0.086.
Molecule C[C@@H]1CN([C@H](C)CO)S(=O)(=O)c2ccc(-c3ccc(F)cc3)cc2O[C@@H]1CN(C)Cc1ccccc1C(=O)O has a viability index of 0.96 ± 0.059.
N#C[C@H]1N[C@H](CO)[C@@H]1c1ccc(C#Cc2ccccc2F)cc1 gave a viability index of 1.07 ± 0.076.
With CNC(=O)C[C@H]1CC[C@H]2[C@@H](COc3ccc(NS(=O)(=O)c4ccc(F)cc4)cc3C(=O)N2C)O1 the viability index was 0.914 ± 0.11.
Work on CO[C@H]1CN(C)C(=O)c2cc(NC(=O)c3cccc(F)c3)ccc2OC[C@@H](C)N(C)C[C@H]1C yielded a viability index of 0.992 ± 0.039.
CNC[C@H]1OCCCC[C@H](C)Oc2ccc(N)cc2C(=O)N([C@@H](C)CO)C[C@@H]1C showed a viability index of 1.07 ± 0.059.
Work on COc1ccccc1NC(=O)N1C[C@@H]2[C@H](c3ccccc31)[C@@H](CO)N2CC1CCOCC1 yielded a viability index of 1.02 ± 0.036.
With C[C@@H]1CN([C@H](C)CO)C(=O)c2ccccc2-c2ccccc2CO[C@H]1CN(C)C(=O)[C@H](Cc1ccccc1)N(C)C the viability index was 0.974 ± 0.066.
For COc1ccc(S(=O)(=O)Nc2ccc3c(c2)C(=O)N([C@H](C)CO)C[C@@H](C)[C@@H](CN(C)Cc2ccc(C(F)(F)F)cc2)OCCCC[C@@H](C)O3)cc1, the viability index was 1.01 ± 0.011.
Cc1cccc(S(=O)(=O)N2CC[C@@H]3[C@H]2c2cc(Br)ccc2N(C)[C@H]3CO)c1 showed a viability index of 1.06 ± 0.017.
With C[C@H](NC(=O)C[C@H]1C=C[C@@H](NS(=O)(=O)c2cccc(F)c2)[C@@H](CO)O1)c1ccccc1 the viability index was 1 ± 0.088.
In the case of CC(=O)N1[C@H](CO)[C@H](c2ccccc2)C12CN(S(=O)(=O)c1ccccc1)C2, the viability index is reported as 1.11 ± 0.075.
Molecule COc1ccc2c3c([C@@H](CO)N(CC4CC4)C[C@]33CN(C3)S(=O)(=O)c3cn(C)cn3)n(C)c2c1 has a viability index of 0.91 ± 0.043.
COCC(=O)Nc1ccc2c(c1)C(=O)N(C)[C@H]1CC[C@@H](CC(=O)NCCCN(C)C)O[C@H]1CO2 was tested, and the viability index was 0.985 ± 0.028.
For COc1cccc(-c2ccc3c(c2)[C@H]2[C@H](CCN2C(=O)Cc2ccncc2)[C@H](CO)N3C)c1, the viability index was 1 ± 0.049.
For CCC(=O)N(CC(C)C)C[C@H]1[C@H](c2ccccc2)[C@@H](CO)N1C(=O)C1CCC1, the viability index was 1.02 ± 0.061.
Work on C[C@@H]1CN([C@@H](C)CO)C(=O)Cc2cc(NC(=O)Cn3cnnn3)ccc2O[C@H]1CN(C)S(=O)(=O)c1ccc(Cl)cc1 yielded a viability index of 1.06 ± 0.061.
Molecule COc1cccc(S(=O)(=O)N2CC[C@@H]3[C@H](CO)Nc4ccc(C5=CCCCC5)cc4[C@@H]32)c1 has a viability index of 0.918 ± 0.075.
Work on Cc1ccc(S(=O)(=O)Nc2ccc3c(c2)C(=O)N([C@@H](C)CO)C[C@H](C)[C@H](CN(C)Cc2ccc(C(F)(F)F)cc2)O3)cc1 yielded a viability index of 0.978 ± 0.037.
CC(=O)N1[C@H](CNC(=O)CN(C)C)[C@@H](c2ccc(C3=CCCCC3)cc2)[C@@H]1CO showed a viability index of 1.05 ± 0.021.
In the case of Cc1cccc(S(=O)(=O)N2C[C@H](O)COC[C@H]3O[C@@H](CC(=O)Nc4ccccc4)CC[C@@H]32)c1, the viability index is reported as 1.06 ± 0.057.
In the case of COc1ccc2c3c([nH]c2c1)[C@@H](CO)N(C[C@]31CN(C1)C(=O)c1ccccn1)C(=O)Nc1ccc(F)cc1, the viability index is reported as 0.971 ± 0.068.
C[C@H](CO)N1C[C@H](C)[C@H](CN(C)Cc2ccc3c(c2)OCO3)Oc2ccc(NC(=O)C3CCCCC3)cc2C1=O gave a viability index of 1.025 ± 0.0046.
With COc1ccc2c3c([C@@H](CO)NC[C@]33CCN(CC3)S(=O)(=O)c3cccc(C)c3)n(C)c2c1 the viability index was 0.929 ± 0.026.
O=C(c1ccccc1F)N1CC(=O)N2[C@H](C1)[C@@H](c1ccc(C#Cc3ccccc3)cc1)[C@@H]2CO showed a viability index of 1.044 ± 0.0057.
Work on CC(C)(C)[S@](=O)N1Cc2cc(C(=O)NCCN3CCCC3)nc(-c3cccc(-c4ccc(C#N)cc4)c3)c2[C@@H]1CCO yielded a viability index of 1.01 ± 0.051.
O=C(Cc1ccccc1)N1CC(=O)N2[C@H](CO)[C@@H](c3ccc(-c4ccc(F)cc4)cc3)[C@@H]2C1 showed a viability index of 0.915 ± 0.066.
In the case of O=C(C[C@@H]1C[C@@H]2c3cc(NC(=O)c4cccnc4)ccc3O[C@@H]2[C@@H](CO)O1)NCc1cc(F)ccc1F, the viability index is reported as 0.978 ± 0.018.
For COCC#Cc1ccc([C@H]2[C@@H](CO)N3C(=O)CN(C(=O)c4ccncc4)C[C@H]23)cc1, the viability index was 1.03 ± 0.12.
Work on CCCNC(=O)Nc1ccc2c(c1)OC[C@H](C)N(C(=O)C1CCOCC1)C[C@H](C)[C@H](OC)CN(C)C2=O yielded a viability index of 1.05 ± 0.16.
